The record followed here is publication PMC12480466.

The target of the assay is T1, STIL (endogenous, HEK293T) (human (endogenous in HEK293T)) (UniProt Q15468).
T1 sequence: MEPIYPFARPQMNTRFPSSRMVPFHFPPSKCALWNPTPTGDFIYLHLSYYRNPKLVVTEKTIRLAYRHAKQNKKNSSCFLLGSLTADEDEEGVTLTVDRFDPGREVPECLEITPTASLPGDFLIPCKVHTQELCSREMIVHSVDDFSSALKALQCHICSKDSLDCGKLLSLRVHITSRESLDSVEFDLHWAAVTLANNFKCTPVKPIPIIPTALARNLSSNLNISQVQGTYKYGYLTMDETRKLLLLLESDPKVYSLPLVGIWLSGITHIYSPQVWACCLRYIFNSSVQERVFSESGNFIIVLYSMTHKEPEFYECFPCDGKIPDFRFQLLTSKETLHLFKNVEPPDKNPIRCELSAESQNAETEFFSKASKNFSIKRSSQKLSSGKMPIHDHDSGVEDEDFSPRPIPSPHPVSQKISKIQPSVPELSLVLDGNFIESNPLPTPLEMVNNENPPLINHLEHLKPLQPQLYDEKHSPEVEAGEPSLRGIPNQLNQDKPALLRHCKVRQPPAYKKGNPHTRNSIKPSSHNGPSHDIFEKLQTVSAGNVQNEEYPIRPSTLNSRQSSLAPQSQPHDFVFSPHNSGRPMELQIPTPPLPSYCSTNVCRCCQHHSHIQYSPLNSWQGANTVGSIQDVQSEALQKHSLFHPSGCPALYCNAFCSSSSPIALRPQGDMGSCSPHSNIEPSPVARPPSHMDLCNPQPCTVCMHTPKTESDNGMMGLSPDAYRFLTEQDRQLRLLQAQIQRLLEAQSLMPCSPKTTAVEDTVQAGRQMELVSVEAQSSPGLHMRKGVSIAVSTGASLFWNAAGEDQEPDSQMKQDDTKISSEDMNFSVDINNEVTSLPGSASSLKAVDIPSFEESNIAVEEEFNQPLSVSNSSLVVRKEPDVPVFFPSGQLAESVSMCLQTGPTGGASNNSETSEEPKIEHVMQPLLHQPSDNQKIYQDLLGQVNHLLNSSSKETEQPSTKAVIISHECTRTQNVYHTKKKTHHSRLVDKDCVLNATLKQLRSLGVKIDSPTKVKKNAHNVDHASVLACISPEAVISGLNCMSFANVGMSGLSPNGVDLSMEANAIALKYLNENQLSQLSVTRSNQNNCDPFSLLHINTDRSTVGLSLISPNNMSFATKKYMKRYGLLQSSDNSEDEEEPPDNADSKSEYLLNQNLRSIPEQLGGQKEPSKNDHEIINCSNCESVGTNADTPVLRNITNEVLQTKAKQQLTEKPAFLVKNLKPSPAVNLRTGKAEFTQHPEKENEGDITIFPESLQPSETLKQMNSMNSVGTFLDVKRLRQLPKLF
In words: co-IP; lysates of HEK293T cells overexpressing 3×FLAG-TUFT1 only; partners blotted with their own antibodies; lysis buffer 150 mM NaCl, 50 mM HEPES, 1 mM MgCl2, 1 mM EGTA, 0.5% Triton X-100, pH 7.4; protein G-Sepharose, 4 °C.

Results are given in words; binding and its absence hold for the method and conditions named. In cells and extracts the contact can be indirect. Sequences can lack the tags named with a protein.

B1: 3×FLAG-TUFT1 (full-length, FL; WT) (protein, UniProt Q9NNX1-1 1-390)
chain: MNGTRNWCTLVDVHPEDQAAGSVDILRLTLQGELTGDELEHIAQKAGRKTYAMVSSHSAGHSLASELVESHDGHEEIIKVYLKGRSGDKMIHEKNINQLKSEVQYIQEARNCLQKLREDISSKLDRNLGDSLHRQEIQVVLEKPNGFSQSPTALYSSPPEVDTCINEDVESLRKTVQDLLAKLQEAKRQHQSDCVAFEVTLSRYQREAEQSNVALQREEDRVEQKEAEVGELQRRLLGMETEHQALLAKVREGEVALEELRSNNADCQAEREKAATLEKEVAGLREKIHHLDDMLKSQQRKVRQMIEQLQNSKAVIQSKDATIQELKEKIAYLEAENLEMHDRMEHLIEKQISHGNFSTQARAKTENPGSIRISKPPSPKPMPVIRVVET
On to B1, for which the binding result was “no binding”.
